Reference: PubChem BioAssay AID493208 (National Center for Advancing Translational Sciences (NCATS), 2011)
The whole screen tested about 44,000 compounds, of which about 340 (0.77%) were called active. Roughly 5% stayed inconclusive and do not appear here. Calls come from the whole dose curve; as a rule, active = well fitted inhibition curve with a large enough effect; inconclusive = small, poorly fitted or top-dose-only effect; inactive = flat fitted curve, though single readings scatter. This is one part of the list.

Experiment: Acumen qHTS Assay for Inhibitors of the mTORC1 Signaling Pathway in MEF (Tsc2-/-, p53-/-) Cells: Sytravon;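 note: plate controls were DMSO for no effect and rapamycin for full effect; nearly all actives have a fitted effect of over 50% in size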
Conditions: phospho-rpS6 immunofluorescence/PI, 24 h; series mostly up to 38.3 µM; activity change, negative = inhibition: at the top concentration
Procedure, shortened: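 Compounds act on Tsc2-/-, p53-/- fibroblasts carrying an empty vector for 24 h before fixation and dual staining for phospho-S6 and DNA (propidium iodide). Values are percentages of cells above a rapamycin-defined pS6/PI threshold.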

Activity change, negative = inhibition, inactive:
Cc1ccc(C)c(N2CCN(S(=O)(=O)c3ccc(-c4cc(C(F)(F)F)on4)s3)CC2)c1 -4.17%
O=C(CN1C(=O)COc2ccc(S(=O)(=O)N3CCOCC3)cc21)Nc1ccc(F)c(Cl)c1 -1.73%
O=C(Nc1nc2ccc(F)cc2s1)c1nc(SCc2ccccc2F)ncc1Cl 1.98%
Cc1c(Cl)cccc1NC(=O)C1CCCN(C(=O)c2cnn(-c3ccccc3)c2-n2cccc2)C1 (stereo unspecified) 5.51%
COc1cc(OC)c(N(C)C(=O)c2cn(C)c(=O)c3cc(OC)c(OC)cc23)cc1Cl -20.9%
O=C(NCCc1ccc(Cl)cc1)C(=O)NCC(c1ccc2c(c1)OCO2)N1CCOCC1 (stereo unspecified) -18%
O=C(Nc1cc(C(F)(F)F)ccc1Cl)c1cc(-c2cccs2)nc2ccccc12 -3.88%
Cc1cc(C)c(S(=O)(=O)NCCc2sc(-c3cccnc3)nc2C)c(C)c1 -0.555%
Cc1cc(S(=O)(=O)Nc2cc3c(cc2Cl)n(C)c(=O)c(=O)n3C)ccc1F -5.29%
Cn1c(=O)c2cc(C(=O)N3CCN(c4cccc(C(F)(F)F)c4)CC3)sc2c2ccccc21 0.181%
Cc1nn(S(=O)(=O)c2ccc(F)cc2)c(C)c1S(=O)(=O)N1CCCCC1 -13.7%
Cc1ccc2c(c1)N(C(=O)CCC(=O)Nc1ccc(F)cc1F)CC(C)O2 (stereo unspecified) -0.668%
Cc1c(C(=O)Nc2cccc(C(F)(F)F)c2)oc2ccc(S(=O)(=O)N3CCC4(CC3)OCCO4)cc12 7.63%
CC(C)(C)C(=O)Nc1nnc2n1CCS2 -0.961%
COc1ccc(NC(=O)CSc2c3c(nc4ccccc24)CCC3)cc1Cl -9.87%
CCOc1ccccc1N(C)C(=O)c1cc(S(=O)(=O)NCCc2ccc(Cl)cc2)ccc1F 10.4%
Cc1ccccc1CNC(=O)CCc1cn(Cc2ccccc2C)c2ccccc12 0.426%
CC(C)(C)c1ccc(C(=O)N2CCC(c3noc(-c4ccc(S(=O)(=O)N5CCCC5)cc4)n3)CC2)cc1 -2.18%
CCOc1ccc(NC(=O)c2ccc3c(c2)nnn3C2CCCC2)cc1 0%
CCN(CC)S(=O)(=O)c1ccc(NC(=O)c2ccc3c(=O)n4c(nc3c2)CCCCC4)cc1 -0.225%
CCc1ccccc1NC(=O)CSc1nc(C)c(C(=O)Nc2ccccc2)c(-c2ccc(Cl)cc2)c1C#N 8.91%
Cc1ccc(NC(=O)C2CCN(S(=O)(=O)c3cccc4nonc34)CC2)c(Cl)c1 -1.88%
O=C(Nc1ccc(-c2nc3ccccc3s2)c(O)c1)c1ccc(Br)cc1 5.56%
CCOC(=O)c1c(C)[nH]c(C)c1S(=O)(=O)N1CCC(C(=O)NCc2cccc(C)c2)CC1 5.53%
CCOC(=O)C1=C(CS(=O)(=O)c2ccc(C(C)(C)C)cc2)NC(=O)NC1c1cccc(OC)c1 (stereo unspecified) -11.2%
Cc1cccc(NC(=O)CSc2nnc3[nH]c(=O)cc(C)n23)c1C 1.53%
COc1ccc(N2CCN(C(=O)c3cnc(SC)nc3C)CC2)cc1 -7.52%
COc1ccc(-c2cc3c(=O)n(CC(=O)Nc4ccc(Br)c(C)c4)ccn3n2)cc1OC 8.77%
O=C(CCn1c(=O)c2cccn2c2cccnc21)Nc1ccccc1Br 3.08%
O=C(CSCc1ccc(F)cc1)N1CCc2c([nH]c3ccccc23)C1c1ccc(F)cc1 (stereo unspecified) -10%
Cc1cc(S(=O)(=O)Nc2cc3c(cc2NCc2ccccc2)n(C)c(=O)n3C)ccc1F 0.523%
Cc1ccc(C)c(Nc2nc(-c3ccccc3)c3cc(Br)ccc3n2)c1 -0.464%
O=C(COc1ccccc1)NCCc1csc(-c2cccc(F)c2)n1 -8.6%
COC(=O)c1cccc(Cn2nnc3sc4c(c3c2=O)CCC(C(C)(C)C)C4)c1 (stereo unspecified) 4.14%
COc1ccc(CCNC(=O)CCCCn2c(=O)c3ccccc3n(CC(=O)Nc3ccc(C)cc3C)c2=O)cc1OC 2.94%
CCN1C(=O)C(Cc2nc3ccccc3c(=O)n2-c2ccc(OC)cc2)c2cc(C)ccc21 (stereo unspecified) 3.36%
N#Cc1cccc(NC(=O)Cn2nc(Cc3ccncc3)c3ccccc3c2=O)c1 -16.4%
Cc1nnc(N2CCCC(C(=O)Nc3cccc(C(F)(F)F)c3)C2)c2nn(-c3ccccc3)c(C)c12 (stereo unspecified) -8.16%
O=C(Nc1cccc(Cl)c1)c1cc(-c2ccc3c(c2)OCCO3)on1 -14.7%
Cc1cccc(N(C)C(CNS(=O)(=O)c2ccccc2)c2ccccc2)c1 (stereo unspecified) -4.15%
Cc1cccc(C(=O)Nc2cccc(OCc3cc(=O)n4cccc(C)c4n3)c2)c1 -9.94%
CCN(CC)CCNC(=O)C(=O)NCC(c1cccnc1)N1CCN(c2ccccc2)CC1 (stereo unspecified) 0%
Cc1cc(Sc2ccc(Cl)cc2)nc2ccccc12 -0.662%
O=C(CSc1ccccc1)NCc1ccc2c(c1)CCN2C(=O)c1ccc(Cl)cc1 -7.76%
CC(C)(C)OC(=O)N1CCC(c2c(C(=O)NC3CCCCC3)cnn2-c2cccc(F)c2)CC1 -0.992%
Cn1nnnc1SCCNCc1ccc(OCc2ccccc2Cl)cc1 -9.26%
CC(NC(=O)c1ccc(NC(=O)c2nsc3ccccc23)cc1)c1ccccc1 (stereo unspecified) 2.42%
Cc1cccc(C(=O)Nc2cccc(C(=O)OCc3cc(=O)n4nc(C(C)C)sc4n3)c2)c1 13%
Cc1ccc(N(C)S(=O)(=O)c2ccc3[nH]c4c(c3c2)CCCC4)cc1 -15.4%
O=C(COc1ccccc1)NCc1ccc2c(c1)CCN2C(=O)c1ccccc1 -12.1%
COC(=O)c1c(NC(=O)Cc2coc3ccc(C)cc23)sc2c1CCC2 4.55%
COc1ccc(-n2nc(C(=O)Nc3ccc(Cl)cn3)c3c4ccccc4n(C)c3c2=O)cc1Cl 0.626%
Cc1ccc(NC(=O)CSc2c3c(nc4ccccc24)CCCC3)cc1F -13.4%
Cc1ccc(CCNC(=O)c2cc(Nc3ccc(C)c(C)c3)nc3ccccc23)cc1 0.591%
CC(C)C1C(=O)Nc2ccc(S(=O)(=O)NCc3ccc(Cl)cc3)cc21 (stereo unspecified) 0.297%
COc1ccc(C2C(C(N)=O)=C(C)Nc3nc(CCCO)nn32)cc1 (stereo unspecified) -1.82%
Cc1cc(F)ccc1-n1nnc(C(N)=O)c1C 0.6%
CC(=O)c1cccc(NC(=O)c2c(-c3ccccc3)c(-c3ccccc3)nn(C)c2=O)c1 -4.76%
CN(Cc1ccccc1)c1ccc(-c2nc(-c3ccco3)no2)cc1[N+](=O)[O-] -2.58%
O=C(c1ccccc1Cl)N(Cc1ccco1)Cc1ccco1 1.05%
CCOC(=O)c1ccc(NC(=O)CC2C(=O)N(c3ccc(C)cc3)C(=O)N2C2CCCCC2)cc1 (stereo unspecified) 3.1%
